Assay results as given in PubChem BioAssay AID1347417 (National Center for Advancing Translational Sciences (NCATS), 2020).
The campaign covered roughly 120,000 compounds. About 5,300 (4.4%) were called active. This list was built around the results that the source calls inconclusive (neither active nor inactive); the mix of calls is not that of the screen. The call rests on the fitted dose curve; in most records, active means well fitted inhibition curve with a large enough effect; inconclusive means small, poorly fitted or top-dose-only effect; inactive means no such curve, though single readings can be large or run the other way. Potencies of inconclusive entries are doubtful fits and often do not repeat.

Assay: qHTS Primary assay for Inhibitors of Plasmodium falciparum Dd2 growth in vitro; further: nearly all actives have a fitted effect of over 65% in size;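 on activity, negative = inhibition: plate controls were DMSO vehicle for no effect and reference drug for full effect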
Conditions: P. falciparum Dd2 growth, SYBR Green, 72 h; activity, negative = inhibition: at 28.9 µM (top of the series) unless noted; series mostly up to 28.9 µM
In short: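 Infected erythrocytes (Dd2, 0.3% parasitemia, 2.5% hematocrit final) are added to compound in RPMI-1640/Albumax II medium, grown 72 h at 37C in low oxygen, then lysed with saponin/Triton-X containing SYBR Green and read by fluorescence.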
Potency means the concentration at half of the fitted maximal effect; tags describe the fitted curve by direction and shape.

| SMILES | Potency | activity, negative = inhibition | outcome |
| --- | --- | --- | --- |
| O=C(CCCCCn1c(=O)c2sccc2n(CC(=O)Nc2ccccc2F)c1=O)NCc1ccc2c(c1)OCO2 | inconclusive: 11.2 µM [inhibitor, single point] | – | – |
| Cc1ccc(C2CC(=O)Nc3c2c(C)nn3-c2nc(C)cc(C)n2)c(C)c1 (configuration not stated) | – | inconclusive: -75.6% [inhibitor] [at 0.594 µM] | – |
| Cc1nc2cc(N3CCCC(C(=O)NCCN4CCCCCC4)C3)cnc2nc1C (configuration not stated) | inconclusive: 0.316 µM [inhibitor, full curve, poor fit] | – | – |
| CNC(=O)C1(C)CN(Cc2ccccc2)Cc2ccc(Nc3ccccc3)nc21 (configuration not stated) | active: 10 µM | – | – |
| Cc1cc(C(=O)N2CCC(C(=O)N3CCCCCCNC(=O)CC3)CC2)nn1C | inconclusive: 3.98 µM [inhibitor, single point] | – | – |
| CCCN(C)c1nccnc1OC1CCN(C(=O)c2ccccc2OC)C1 (configuration not stated) | inconclusive: 20 µM [inhibitor, partial curve, poor fit] | – | – |
| COc1ccccc1CN1CCN(C(=O)c2ccc(CCC(C)(C)O)cc2)CC1 | – | inactive: -10.2% | – |
| COc1cc2c(cc1OC)C(COc1cc(C)cc(C)c1)N(C(=O)C(C)(C)C)CC2 (configuration not stated) | inconclusive: 11.2 µM [inhibitor, single point] | – | – |
| CCC(Nc1ccc(-c2nc(-c3ccccn3)no2)cc1[N+](=O)[O-])c1ccccc1 (configuration not stated) | active: 3.55 µM | – | – |
| C[C@]1(CO)C2CC[C@@H](O)[C@@H](CC(=O)N3CCC[C@H]3CO)[C@]2(C)CC[C@H]1OC(=O)Nc1ccccc1 (some centres not stated) | inconclusive: 10 µM [inhibitor, single point] | – | – |
| CC1=C[C@@H](CN(C)CCC#N)[C@H](C(C)C)C[C@H]1Cc1nnc(-c2ccccc2F)o1 | inconclusive: 14.1 µM [inhibitor, partial curve, poor fit] | – | – |
| COc1ccc(CN[C@H]2C[C@@H](Cc3cc(CN(C)c4ccccc4)on3)C2(C)C)cc1 | inconclusive: 3.98 µM [inhibitor, full curve, poor fit] | – | – |
| Cc1ccc(S(=O)(=O)c2nc(-c3cccs3)oc2N2CCC(C)CC2)cc1 | inconclusive: 17.8 µM [inhibitor, single point] | – | – |
| Cc1cccc(N(C)C(=O)Cn2c(-c3cccc(Cl)c3)nc(C)c(CCO)c2=O)c1 | inconclusive: 17.8 µM [inhibitor, single point] | – | – |
| COC(=O)c1scc(-c2ccc(C)cc2)c1S(=O)(=O)N1CCN(c2cccc(Cl)c2)CC1 | inconclusive: 17.8 µM [inhibitor, single point] | – | – |
| COc1ccc(NC(=O)COc2ccc(-c3nnc4n3CCCC4)cc2)c(OC)c1 | inconclusive: 3.16 µM [inhibitor, partial curve, poor fit] | – | – |
| CCc1ccccc1Nc1sc(C(=O)c2ccccc2)c(N)c1S(=O)(=O)c1ccccc1 | active: 11.2 µM | – | – |
| CN(C)C(=O)c1ccc(S(=O)(=O)NCc2ccc(Cl)cc2)s1 | – | inactive: 26.3% | – |
| CCC1c2nccn2CCCN1C(=O)CCc1ccc(OC)c(OC)c1 (configuration not stated) | inconclusive: 17.8 µM [inhibitor, single point] | – | – |
| CC(C)CN1C(=O)c2cccn2CC1C(=O)N1CCN(c2ncccn2)CC1 (configuration not stated) | inconclusive: 11.2 µM [inhibitor, single point] | – | – |
| CC1(COc2ccccc2)COc2ccc(C(=O)NCc3cnccn3)cc2N1 (configuration not stated) | inconclusive: 1 µM [inhibitor, full curve, poor fit] | – | – |

| SMILES | Potency | activity, negative = inhibition | outcome |
| --- | --- | --- | --- |
| CCOc1ccc(NC(=O)Cn2c(-c3cccc(Cl)c3)nc(C)c(CCO)c2=O)cc1 | inconclusive: 17.8 µM [inhibitor, single point] | – | – |
| CCc1ccccc1NC(=O)CN(c1cc(C(F)(F)F)ccc1Cl)S(=O)(=O)c1ccccc1 | inconclusive: 7.94 µM [inhibitor, partial curve, poor fit] | – | – |
| COC1C(=O)N(CC2CC2)C12CCN(C(=O)C1CC1)CC2 (configuration not stated) | – | – | inactive |
| COc1ccccc1Nc1cc(C(=O)NCCCN(C)C2CCCCC2)c2ccccc2n1 | active: 10 µM | – | – |
| O=C1CN(C(=O)c2ccc(S(=O)(=O)N3CCCC3)cc2)C(c2ccc(F)cc2)c2cc(Br)ccc2N1 (configuration not stated) | inconclusive: 17.8 µM [inhibitor, single point] | – | – |
| CCC1CN(S(=O)(=O)c2cc(-c3cc(C)no3)ccc2OC)c2cc(Cl)ccc2O1 (configuration not stated) | inconclusive: 17.8 µM [inhibitor, single point] | – | – |
| Cc1ccc2c(c1)N(C(=O)N1CCC(C(=O)Nc3cccc(F)c3)CC1)CCO2 | inconclusive: 14.1 µM [inhibitor, single point] | – | – |
| Cc1ccc(C(=O)N2CCC(N3CCCC(C(=O)N4CCCC4)C3)CC2)s1 (configuration not stated) | inconclusive: 2.24 µM [inhibitor, single point] | – | – |
| CCc1nc2c(c(-c3ccc(Cl)cc3)n1)CN(C(=O)CCl)CC2 | inconclusive: 20 µM [inhibitor, single point] | – | – |
| CN(Cc1ccccc1)c1nc2c(S(=O)(=O)c3cccc(Cl)c3)nnn2c2ccsc12 | – | inconclusive: -75.9% [inhibitor] [at 5.79 µM] | – |
| N#Cc1ccc(CN2C[C@@H](NC(=O)c3cccnc3)C[C@H]2CO)cc1 | – | inactive: -19.7% | – |
| CCn1ccc(C(=O)N2CCCN(c3cc(-c4ccc(OC)cc4)[nH]n3)CC2)n1 | inconclusive: 3.16 µM [inhibitor, partial curve] | – | – |
| COc1ccc(C2(C(=O)N3CC4CC(C3)[C@H]3CCCC(=O)N3C4)CC2)cc1 (some centres not stated) | – | inactive: 7.5% | – |
| COC(=O)C1=C(C)N=C2SC=C(CC(=O)N3CCCC3)N2C1c1ccccc1OC (configuration not stated) | inconclusive: 0.251 µM [inhibitor, full curve, poor fit] | – | – |
| O=C(CSc1nc2c([nH]c3ccccc32)c(=O)n1-c1ccccc1F)Nc1cccc(Cl)c1 | inconclusive: 8.91 µM [inhibitor, partial curve, poor fit] | – | – |
| CC(Nc1oc(-c2ccc(COc3ccccc3)o2)nc1C#N)c1ccccc1 (configuration not stated) | inconclusive: 17.8 µM [inhibitor, single point] | – | – |
| COC[C@@H]1CNC[C@H]1c1nc(C)no1 | – | inactive: -17.5% | – |
| CCCn1cc(CN2CCc3nc(N4CCN(C)CC4)[nH]c(=O)c3CC2)c2ccccc21 | inconclusive: 3.55 µM [inhibitor, single point] | – | – |
| COCCn1ccc2c(C3=CCOCC3)nc(-c3cccc(N4CCOCC4)c3)cc21 | inconclusive: 5.62 µM [inhibitor, single point] | – | – |
| O=C(N1CCCC(n2cc(-c3nc(-c4ccccc4)no3)nn2)C1)C1(c2ccccc2)CC1 (configuration not stated) | inconclusive: 3.98 µM [inhibitor, partial curve, poor fit] | – | – |
| COC1C(=O)N(c2cccc(F)c2)C12CCN(S(=O)(=O)c1cccs1)CC2 (configuration not stated) | inconclusive: 12.6 µM [inhibitor, single point] | – | – |

| SMILES | Potency | activity, negative = inhibition | outcome |
| --- | --- | --- | --- |
| CCOc1ccc(-c2cn3c(n2)sc2cc(C(=O)NC(C)C45CC6CC(CC(C6)C4)C5)ccc23)cc1 (configuration not stated) | inconclusive: 0.891 µM [inhibitor, full curve, poor fit] | – | – |
| CCOc1ccccc1NC(=O)CC1CCCN(c2cnn(CC)c(=O)c2)C1 (configuration not stated) | – | – | inactive |
| Cc1ccc(CNC(=O)N2C[C@@H](Oc3cccnc3)C[C@H]2C(=O)N2CCCC2)cc1 | inconclusive: 8.91 µM [inhibitor, partial curve, poor fit] | – | – |
| Cc1ccc(-n2c(=O)c3c(C)c(C(=O)N(C)C)sc3n(Cc3ccccc3C)c2=O)cc1C | – | inactive: 22.1% | – |
| Cc1ccccc1N1CCN(C(=O)c2noc(-c3ccc[nH]c3=O)n2)CC1 | inconclusive: 3.98 µM [inhibitor, single point] | – | – |
| CCn1cc(S(=O)(=O)NCCc2noc(COC)n2)cn1 | – | inactive: 29% | – |
| COc1ccc(CN(C)Cc2csc(C)n2)cc1CN1CCCC1 | inconclusive: 7.08 µM [inhibitor, partial curve, poor fit] | – | – |
| CSc1nccc(-c2cc(NCc3cccnc3)nc3[nH]ccc23)n1 | active: 10 µM | – | – |
| COc1ccc(C2C(C(=O)Nc3ccccc3)=C(C)Nc3nc(-c4ccc(Cl)cc4)nn32)cc1 (configuration not stated) | inconclusive: 3.55 µM [inhibitor, full curve, poor fit] | – | – |
| Cc1ccccc1CNCCCSc1nnnn1C | inconclusive: 17.8 µM [inhibitor, single point] | – | – |
| COc1ccc(-n2nc3n(c2=O)CCN(CC2CCCCC2)C3)cc1 | – | inactive: -14.9% | – |
| CCNC(=O)c1n[nH]c2c1CN(C(=O)c1ccc(C(F)(F)F)cc1)CC2 | – | – | inactive |
| CC1(C)[C@H](Cc2cc(CCO)on2)C[C@@H]1NC(=O)C1CCC1 | – | inactive: 6.49% [at 44.1 µM] | – |
| O=C(Nc1ccsc1)N[C@H]1C[C@H]2C(=O)NC[C@@H](CCC(=O)N3CCN(c4ccccn4)CC3)N2C1 | inconclusive: 8.91 µM [inhibitor, partial curve, poor fit] | – | – |
| CCOC(=O)c1cnc2c(ccc3ccccc32)c1Nc1ccccc1O | active: 11.2 µM | – | – |
| O=C(CC[C@@H]1CNC(=O)[C@@H]2C[C@H](NCc3ccccn3)CN12)NCc1ccccc1 | inconclusive: 11.2 µM [inhibitor, partial curve] | – | – |
| CCN(C(=O)c1c(C)oc2ncnc(N3CCCCC3)c12)c1cc(C)ccc1C | inconclusive: 11.2 µM [inhibitor, single point] | – | – |
| Cn1c(SCc2ccc(F)cc2)nc2ccc(C(=O)NCc3cccc(Cl)c3)cc21 | active: 10 µM | – | – |
| COc1ccccc1NC(=O)N1CCOc2ccc(CN3CCc4ccccc4C3)cc2C1 | inconclusive: 0.891 µM [inhibitor, full curve, poor fit] | – | – |
| COc1ccc2c(CNC3CCC(C)CC3)c(C(=O)O)n(Cc3ccc(F)cc3)c2c1 (configuration not stated) | inconclusive: 17.8 µM [inhibitor, single point] | – | – |
